# Results: publication PMC4336329 (PLoS ONE, 2015)
# About 14,000 (4.5%) of roughly 310,000 compounds showed an effect of 50% or more. The effect is printed as a negative number. This is one part of the list.
# Molecular target: human ether-à-go-go-related gene (hERG) potassium channel (human, UniProt Q12809)
# Assay: primary screen, population patch clamp on CHO cells stably expressing hERG
# 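Note: peak tail current of the secondary pulse compared with the same well before compound.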
# human ether-à-go-go-related gene (hERG) potassium channel, sequence (Q12809 whole entry, looked up): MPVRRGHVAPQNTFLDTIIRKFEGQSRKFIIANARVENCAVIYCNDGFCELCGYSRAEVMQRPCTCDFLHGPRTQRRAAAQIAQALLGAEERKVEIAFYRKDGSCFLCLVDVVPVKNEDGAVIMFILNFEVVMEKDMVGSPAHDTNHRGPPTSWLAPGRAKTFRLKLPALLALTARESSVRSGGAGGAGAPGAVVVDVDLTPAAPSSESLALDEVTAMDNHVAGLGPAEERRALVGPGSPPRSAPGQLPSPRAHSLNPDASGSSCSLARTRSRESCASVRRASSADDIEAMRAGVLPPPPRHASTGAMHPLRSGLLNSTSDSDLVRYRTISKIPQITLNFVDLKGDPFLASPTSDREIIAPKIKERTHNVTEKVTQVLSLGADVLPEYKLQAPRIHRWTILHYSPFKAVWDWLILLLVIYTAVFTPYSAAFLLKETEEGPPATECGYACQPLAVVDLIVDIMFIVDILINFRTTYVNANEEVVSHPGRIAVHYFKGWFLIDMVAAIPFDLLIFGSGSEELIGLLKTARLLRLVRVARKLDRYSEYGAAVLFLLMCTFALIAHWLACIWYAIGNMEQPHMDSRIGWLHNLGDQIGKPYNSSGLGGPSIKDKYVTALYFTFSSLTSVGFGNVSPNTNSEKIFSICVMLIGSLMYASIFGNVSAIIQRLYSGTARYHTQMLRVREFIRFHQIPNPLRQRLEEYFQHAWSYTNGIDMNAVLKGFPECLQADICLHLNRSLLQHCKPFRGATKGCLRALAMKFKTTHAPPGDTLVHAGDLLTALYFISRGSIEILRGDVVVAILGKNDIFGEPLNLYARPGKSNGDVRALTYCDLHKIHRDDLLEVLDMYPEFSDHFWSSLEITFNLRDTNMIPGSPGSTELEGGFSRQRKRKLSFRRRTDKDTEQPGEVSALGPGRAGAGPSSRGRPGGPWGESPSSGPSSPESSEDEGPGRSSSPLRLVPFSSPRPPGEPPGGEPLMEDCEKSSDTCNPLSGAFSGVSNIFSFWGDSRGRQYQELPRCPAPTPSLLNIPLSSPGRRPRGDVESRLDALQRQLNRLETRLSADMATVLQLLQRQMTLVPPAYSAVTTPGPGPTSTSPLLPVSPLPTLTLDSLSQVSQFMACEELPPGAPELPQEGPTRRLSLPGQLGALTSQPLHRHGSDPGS
row,Structure (SMILES),"hERG current change (%, negative = inhibition) at 10uM"
1,Cc1ccc(-c2nc3ccccc3c(=O)n2-c2ccncc2)cc1,0.789%
2,CCC(C)C(NC(=O)c1ccc(Cl)cc1)C(=O)O (centres unmarked),17%
3,COc1ccccc1NC(=O)c1[nH]c(C)c(C(C)=O)c1C,7.16%
4,COc1ccc(NS(=O)(=O)c2cc(NC(=O)Cc3cccs3)ccc2C)cc1,2.08%
5,Cc1cccc(C)c1NC(=S)NCCc1ccc(O)c(O)c1,12.8%
6,c1ccc(Cn2nnc3c(Nc4ccc5c(c4)OCO5)nc(C4CC4)nc32)cc1,1.05%
7,OC(CNCCc1c[nH]c2ccccc12)c1ccccc1 (centres unmarked),-13.5%
8,CC(=O)Nc1ccc(S(=O)(=O)N(C)CC(=O)N/N=C/c2cccc(O)c2)cc1,17.6%
9,O=S(=O)(/C=C/c1ccccc1)N1CCN(c2ccccc2)CC1,-2.08%
10,CCOc1ccccc1OCC(=O)Nc1nc2ccccc2[nH]1,36.8%
11,COCCOC1CCN(C(=O)c2cc(COc3ccc(F)cc3F)on2)CC1,2.54%
12,Cc1nc(NC(=O)c2oc3ccccc3c2C)sc1C(=O)N(C)C,-4.58%
13,O=C(COc1ccc(C(=O)c2ccccc2)cc1)NCc1ccc(F)cc1,-6.64%
14,COc1ccc(CNc2ncc(-c3ccc(F)cc3)n2C)cc1OC.O=C(O)C(=O)O,-65.2%
15,CC(C)c1cc(C(=O)O)n[nH]1,20.3%
16,C=CCOC(=O)C1=C(C)NC(C)=C(C(=O)OCC=C)C1c1ccco1,-7.11%
17,CCN(CC(=O)Nc1c(F)cccc1F)C(=O)c1cccc(S(=O)(=O)NCc2ccccc2)c1,-15.5%
18,COc1ccc(S(=O)(=O)n2nc(OC(C)=O)cc2N(C(C)=O)C(C)=O)cc1,-3.25%
19,COCCCNc1nc2c(c(=O)n(Cc3ccc(F)cc3)c(=O)n2C)n1C,-11.7%
20,CCCn1c(N)c(N(CCOC)C(=O)c2cc(-c3ccco3)nc3ccccc23)c(=O)[nH]c1=O,14.8%
21,CCOc1ccccc1C(=O)NC(C(=O)OCC(=O)Nc1nnc(-c2ccccc2)o1)C(C)C (centres unmarked),-24.4%
22,Cc1ccnc(NS(=O)(=O)c2ccc3c(c2)CCO3)c1,12.3%

row,Structure (SMILES),"hERG current change (%, negative = inhibition) at 10uM"
1,CN1CCN(c2ccccc2NC(=O)c2ccc(N3CCCC3)c([N+](=O)[O-])c2)CC1,-48.5%
2,COc1ccc(C(=O)NCCn2ccc3ccccc32)cc1OC,-2.74%
3,Cc1ccc(CN(C(=O)c2ccccc2[N+](=O)[O-])C2CCS(=O)(=O)C2)o1 (centres unmarked),13.1%
4,COc1cc(-n2nc(C)c3c2OC(N)=C(C#N)C3c2ccccc2)c(Cl)c(Br)c1O (centres unmarked),0.576%
5,COc1ccc(/C=C/CN2CCCC(CO)(Cc3cccc(Cl)c3)C2)cc1 (centres unmarked),-50.8%
6,Cc1cc(NC(=O)CCC(=O)N(CCC(C)C)CC(=O)NCC2CCCO2)no1 (centres unmarked),11.2%
7,O=C(O)CC(NC(=O)C1CCCCC1)c1cc([N+](=O)[O-])ccc1Cl (centres unmarked),-0.243%
8,CN(C)P(=NC(=S)c1cccn1C)(N(C)C)N(C)C,16.4%
9,O=C(Cc1ccc(Br)cc1)NCCc1ccccc1,13.2%
10,COc1ccc(/C=N/NC(=S)SC)cc1OC,0.682%
11,COC(=O)Cn1c(=O)c2c(n(Cc3ccccc3)c1=O)N/C(=C/c1ccc(Br)cc1)C2=O,7.03%
12,CC(c1ccccc1)n1c(-c2ccccc2F)n[nH]c1=S (centres unmarked),-11.9%
13,COc1ccc(CNC(=O)C2CCCN2S(=O)(=O)c2ccc(F)cc2)cc1 (centres unmarked),-1.3%
14,Cc1ccc(NC(=O)CSc2ncccn2)cc1S(=O)(=O)N1CCCCC1,-27.5%
15,CCOC(=O)CC1ON(C)C(=O)N1c1ccc([N+](=O)[O-])cc1 (centres unmarked),-6.46%
16,O=S(=O)(NC(=S)Nc1ccccc1)c1ccc(F)cc1,15%
17,COc1ccc(-c2nc(SCC(=O)N3CCCC3)n[nH]2)cc1,14.2%
18,COCCn1c(C(C)C)nc2oc3ccccc3c(=O)c2c1=O,3.05%
19,Cc1ccc(S(=O)(=O)Nc2ccnc(-c3cccnc3)n2)cc1,12.7%
20,CN(C)/C=C(\C(=O)c1ccc(F)cc1F)c1nnnn1-c1ccccc1,21.1%
21,O=C(Nc1ccc(Cc2ccncc2)cc1)c1ccc(Br)o1,-35.8%
22,CCOc1ccc(C2CC(c3cccc(OC)c3)n3nc(N)nc3N2)cc1 (centres unmarked),7.43%

row,Structure (SMILES),"hERG current change (%, negative = inhibition) at 10uM"
1,O=C(Cn1nnc(-c2cccc(C(F)(F)F)c2)n1)NNS(=O)(=O)c1cccc(C(F)(F)F)c1,9.57%
2,CC(CCc1ccc(O)cc1)NCc1ccc(Cl)cc1Cl (centres unmarked),-63.8%
3,CCn1cc(C2=NC(CCSC)CO2)c2ccccc21 (centres unmarked),-9.46%
4,CCOCC(=O)Nc1nc(C)cc(C)n1,21.1%
5,CCCCn1c(-c2cccs2)nc2oc3ccccc3c(=O)c2c1=O,-14.3%
6,CCc1nnc(NC(=O)c2ccc(-c3ccc(C(C)=O)cc3)o2)s1,3.38%
7,CCCCOC(=O)c1ccc(NC(=S)NC(=O)c2ccco2)cc1,15.6%
8,Cc1ccc(NC(=S)/N=C(\N)Nc2nc(C)c3cc(C)ccc3n2)c(C)c1,3.87%
9,CCOc1ccc(C(=O)C(C)OC(=O)Cn2cnc3c2c(=O)n(C)c(=O)n3C)cc1 (centres unmarked),-33.2%
10,COc1ccc(/C=N/NC(=O)CC2N=C(Cc3ccccc3)NNC2=O)cc1OC (centres unmarked),14.5%
11,COc1ccc(C(=O)Nc2cccc(-c3nnc(-c4ccco4)o3)c2)cc1,-37.4%
12,Cc1ccc(C)c(NC(=O)CSc2nnc(CSc3nc(C)cc(C)n3)n2Cc2ccco2)c1,-37.9%
13,CC1CN(CC(=O)N2CCc3[nH]c4ccccc4c3C2)CC(C)O1 (centres unmarked),10.6%
14,CCN(CC)C(=O)CSc1nc2cc3c(cc2c(=O)n1CCCCCC(=O)NCc1ccc(OC)cc1)OCO3,4.18%
15,O=C1c2ccccc2C(=O)N1CCCCSc1nc2ccccc2o1,-1.97%
16,CN1CCN(c2nc(-c3ccccc3)cc(C(F)(F)F)n2)CC1,-19.1%
17,CCN(CC(=O)NCC(=O)Nc1ccc(Br)cc1C)Cc1ccccc1,4.45%
18,Cc1cccc(C)c1-n1cccc1/C=C1\SC(=S)N(c2cccc(C(=O)O)c2)C1=O,46.6%
19,O=C1CN(C(=O)c2ccc(Cl)c(S(=O)(=O)N3CCc4ccccc43)c2)c2ccccc2N1,-21%
20,OCC1(CCc2ccccc2)CCN(Cc2cc(Cl)ccc2O)CC1,-49.5%
21,O=C(O)c1cccc2c1/C(=N/Nc1ccc([N+](=O)[O-])cc1[N+](=O)[O-])c1ccccc1-2,19.7%
22,O=C(NCc1ccc(Cl)cc1)C1CCCN(C(=O)c2ccc(Cl)cc2)C1 (centres unmarked),-40.1%

row,Structure (SMILES),"hERG current change (%, negative = inhibition) at 10uM"
1,COc1ccccc1C1c2[nH]c3ccccc3c2C[C@H]2C(=O)N(C3CCN(Cc4ccccc4)CC3)CC(=O)N12 (some centres unmarked),-48.7%
2,COc1ccc2[nH]c(=O)c(C3c4cc(OC)c(OC)cc4CCN3C(=O)c3ccco3)cc2c1 (centres unmarked),-23.8%
3,Cc1ccc(NC(=O)N2CCc3ccccc32)cc1,8.51%
4,Cc1cc(O)cc(=O)n1C,7.94%
5,Cc1nnc(SC(C)C(=O)NCC2CCCO2)n1-c1ccccc1 (centres unmarked),-6.04%
6,O=S(=O)(Nc1ncccn1)c1ccc(NC(=S)Nc2cccc(Cl)c2)cc1,19.1%
7,COc1ccccc1CN1CC(C(=O)N(C)CCCn2nc(C)cc2C)CCC1=O (centres unmarked),1.41%
8,Cc1ccc(S(=O)(=O)N2CCOCC2)cc1NC(=O)c1cc2c(s1)CCC2,-13.4%
9,Cc1nnc(N(Cc2ccccc2)C(=O)c2cnccn2)s1,11.6%
10,O=C(CCN1C(=O)/C(=C/c2ccc(Cl)cc2)SC1=S)NCCCn1ccnc1,-23.4%
11,O=[N+]([O-])c1ccc(Sc2ccccn2)nc1,10.8%
12,C=CCn1c(SCc2ccc(Cl)cc2)nc2cc(C(=O)N3CCC(C(N)=O)CC3)ccc2c1=O,-33.3%
13,COc1ccc(C(=O)N2CCOC2CNC(=O)C(=O)NCc2ccccc2Cl)cc1 (centres unmarked),-0.13%
14,Br.COc1ccc(C(=O)Cn2c(NCCCO)nc3ccccc32)cc1OC,-5.82%
15,CN(C)CC(=O)Nc1ccc(Oc2ccc(Cl)cc2)cc1.Cl,24.5%
16,Cc1c(CC(=O)O)c(=O)oc2cc(OCc3ccc(Br)cc3)ccc12,18.5%
17,N#Cc1cccc(C(=O)OCC(=O)c2ccc3c(c2)NC(=O)CO3)c1,7.1%
18,O=C(NCCc1ccc(F)cc1)Nc1ccc([N+](=O)[O-])cc1,-12%
19,COc1cccc(Nc2c3c(nc4c(-c5ccccc5)c(C)nn24)CCC3)c1,-2.06%
20,CCc1c(O)nc(SCC(=O)Nc2cc(C)on2)n(-c2ccccc2)c1=O,3.39%
